Out of some 390,000 compounds screened, about 17,000 (4.4%) were called active. Inconclusive results, whose numbers are uncertain, are shown with a selection of clear calls. The call rests on the fitted dose curve; in most records, active means well fitted inhibition curve with a large enough effect; inconclusive means small, poorly fitted or top-dose-only effect; inactive means no such curve, though single readings can be large or run the other way. Potencies of inconclusive entries are doubtful fits and often do not repeat.
target: Lysine-specific demethylase 4A (Homo sapiens) (UniProt O75164); assay: qHTS Assay for Inhibitors of JMJD2A-Tudor Domain; conditions: AlphaScreen JMJD2A-Tudor / H3K4me3 peptide binding; series mostly up to 114 µM; further: nearly all actives have a fitted effect of over 50% in size
Potency means the concentration at half of the fitted maximal effect; tags describe the fitted curve by direction and shape.

Sequence of UniProt O75164 (O75164 whole entry, looked up, the tested form may be a part): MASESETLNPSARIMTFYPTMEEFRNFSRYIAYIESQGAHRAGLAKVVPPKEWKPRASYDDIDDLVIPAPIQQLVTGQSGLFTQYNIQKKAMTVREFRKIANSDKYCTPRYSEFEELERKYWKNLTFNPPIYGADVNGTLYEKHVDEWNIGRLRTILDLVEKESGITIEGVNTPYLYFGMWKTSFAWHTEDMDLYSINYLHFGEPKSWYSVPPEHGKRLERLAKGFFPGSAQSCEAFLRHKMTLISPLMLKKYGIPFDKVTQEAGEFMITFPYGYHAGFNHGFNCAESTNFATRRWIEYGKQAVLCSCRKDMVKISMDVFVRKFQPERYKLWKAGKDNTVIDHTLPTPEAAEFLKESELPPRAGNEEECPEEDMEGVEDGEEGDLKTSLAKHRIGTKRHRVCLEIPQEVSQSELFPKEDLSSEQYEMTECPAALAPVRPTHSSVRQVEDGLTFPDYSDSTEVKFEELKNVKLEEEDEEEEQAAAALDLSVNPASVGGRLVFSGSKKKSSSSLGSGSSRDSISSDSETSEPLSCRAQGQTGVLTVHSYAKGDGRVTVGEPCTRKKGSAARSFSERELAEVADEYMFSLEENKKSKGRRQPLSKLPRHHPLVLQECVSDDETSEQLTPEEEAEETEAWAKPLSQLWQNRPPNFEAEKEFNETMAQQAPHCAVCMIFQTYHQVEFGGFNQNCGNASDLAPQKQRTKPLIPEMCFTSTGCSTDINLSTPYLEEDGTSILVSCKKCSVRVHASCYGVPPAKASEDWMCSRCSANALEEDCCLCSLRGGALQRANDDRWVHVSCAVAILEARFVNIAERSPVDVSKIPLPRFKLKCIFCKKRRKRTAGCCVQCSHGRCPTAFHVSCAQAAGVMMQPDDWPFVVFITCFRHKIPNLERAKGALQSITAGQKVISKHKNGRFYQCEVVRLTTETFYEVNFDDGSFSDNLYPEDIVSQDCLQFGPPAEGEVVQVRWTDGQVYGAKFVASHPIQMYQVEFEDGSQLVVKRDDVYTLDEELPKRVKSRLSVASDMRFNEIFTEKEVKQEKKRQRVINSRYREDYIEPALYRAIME

Potency, inactive:
N#C/C(=C\c1ccccc1[N+](=O)[O-])C(=O)NCc1ccccc1
COc1ccc(-n2nnnc2S(=O)(=O)Cc2ccc(C(=O)O)cc2)cc1
c1coc(CNc2ncnc3c2oc2ccccc23)c1
NC(N)=NC(=O)c1nc(Cl)c(N)nc1N
COC(=O)c1c(NC(=S)NNS(=O)(=O)c2ccc(OC)cc2OC)sc2c1CCCCCC2
O=C(Nc1ccc(Cl)cc1Cl)c1ccc2c(c1)OCCO2
C=C(C)Cn1c(SCC(=O)Nc2cccc(C)c2)nc2sc3c(c2c1=O)CCCC3
CCOC(=O)c1c(NC(=O)CSC(=S)N(C)C)sc(C)c1C
COc1ccc(CCNC(=O)CCCn2c(=O)c3ccccc3n(CC(=O)Nc3ccc(C)cc3Cl)c2=O)cc1OC
O=C(CSc1ncccn1)N/N=C/c1ccc2c(c1)OCO2
CCOC(=O)c1nnc(-c2ccc(C)cc2)nc1Oc1ccc(Cl)cc1Cl

Potency, active:
OC(c1ccccn1)C(O)c1ccccn1 (stereo not drawn) 50.1 µM
Cc1csc(SCC(=O)c2ccc(S(=O)(=O)N3CCOCC3)cc2)n1 56.2 µM
C=CCn1c(-c2cccn(Cc3ccccc3)c2=O)n[nH]c1=S 28.2 µM
S=c1[nH]nc(-c2ccc(Cl)cc2)n1/N=C/C=C/c1ccco1 56.2 µM
O=[N+]([O-])c1cccc(-c2ccc(CN3CCN(c4ccccc4)CC3)o2)c1 35.5 µM
CC(=O)c1ccccc1OCCCCN1CCCCC1 25.1 µM
COc1cccc(OC)c1OCC(C)CNCC1CCCO1 (stereo not drawn) 3.55 µM
COC(=O)Cc1[nH]n(-c2nc3ccccc3s2)c(=O)c1C(C)=Nc1ccc(Cl)cc1 22.4 µM
CCn1c(C(C)NC(=O)c2ccc(C)cc2)n[nH]c1=S (stereo not drawn) 6.31 µM
CN(C)c1nc(-c2ccccn2)nnc1-c1ccccc1 3.98 µM
Cc1cc(C=O)c(C)n1-c1ccc(N2CCCCC2)c([N+](=O)[O-])c1 35.5 µM
CCOc1ccc(Nc2nc(N)nc(CN(C)C3CCCCC3)n2)cc1 20 µM
O=C(O)CN1C(=O)/C(=C\c2cn(-c3ccccc3)nc2-c2ccccc2)SC1=S 50.1 µM

Potency, inconclusive:
O=C(Cc1ccc(-c2ccccc2)cc1)Nc1ncccc1O 50.1 µM [inhibitor, partial curve]
CN1c2ccccc2C(C)(C)C12C=Nc1c(ccc3ccccc13)O2 (stereo not drawn) 79.4 µM [inhibitor, partial curve]
COc1ccc2c(c1)O/C(=C\c1ccco1)C2=O 44.7 µM [inhibitor, partial curve, poor fit]
O=C(N/N=C/C(Br)=C/c1ccccc1)NC1CCCCC1 25.1 µM [inhibitor, partial curve]
CCc1ccc2nc3sc(C(=O)Nc4nnc(CC)s4)c(N)c3cc2c1 28.2 µM [inhibitor, full curve, poor fit]
Cc1cccc(NC(=S)N2CCCN(c3ncccc3[N+](=O)[O-])CC2)c1 79.4 µM [inhibitor, single point]
O=C(/C(C=Nc1ccc(F)cc1)=C(/O)c1ccco1)C(F)(F)F 79.4 µM [inhibitor, single point]
COC(=O)C1=C(N)Oc2cc(C)n(CC3CCCO3)c(=O)c2C1c1ccc(Cl)c(Cl)c1 (stereo not drawn) 56.2 µM [inhibitor, partial curve]
O=C(c1ccccc1NS(=O)(=O)c1ccc([N+](=O)[O-])cc1[N+](=O)[O-])N1O[C@@H]2C=C[C@H]1C2 89.1 µM [inhibitor, partial curve]
Cc1cccc2cc(-c3nc4ccc(C(=O)O)cc4[nH]3)c(=O)oc12 17.8 µM [inhibitor, single point]
CC(=O)N1N=C(c2ccc([N+](=O)[O-])cc2)CC1c1ccccc1Cl (stereo not drawn) 56.2 µM [inhibitor, partial curve]
Cc1nc2c(cc1C#N)C(=O)c1ccccc1-2 22.4 µM [inhibitor, single point]
CCOc1ccc(OCC)c(Nc2cc(C)nc3nc(C)nn23)c1 35.5 µM [inhibitor, partial curve]
Cc1cc(/C=N/n2cnnc2)c(C)n1-c1ccc2c(c1)OCO2 56.2 µM [inhibitor, partial curve]
Cc1[nH]c2ccc(C(=O)NCCN3CCCCCC3)cc2c1C 50.1 µM [inhibitor, partial curve]
COc1ccc(CNC(=O)CCNS(=O)(=O)c2cc(Br)cnc2N)cc1 14.1 µM [inhibitor, full curve, poor fit]
CC(C)OC(=O)Nc1ccc2c(c1)N(C(=O)CCN1CCN(CCO)CC1)c1ccccc1CC2 22.4 µM [inhibitor, full curve, poor fit]
CCN(CC)S(=O)(=O)c1cc(NC(=O)C(=O)c2c(-c3ccccc3)cc3ccccn23)ccc1C 10 µM [inhibitor, full curve, poor fit]
CC1=C/C(=C(/c2cc(C)c(O)c(Br)c2)c2ccccc2S(=O)(=O)O)C=C(Br)C1=O 28.2 µM [inhibitor, partial curve]
COc1ccc(OC)c(S(=O)(=O)NCC(c2ccco2)N2CCc3ccccc32)c1 (stereo not drawn) 35.5 µM [inhibitor, partial curve]
COc1ccc(C(=O)c2c(C(F)(F)F)oc3c2C(=O)c2ccccc2C3=O)cc1OC 31.6 µM [inhibitor, partial curve]
COc1ccc(CN2C(=O)[C@H]3Cc4c([nH]c5ccccc45)C(C)(C)N3C2=O)cc1 50.1 µM [inhibitor, partial curve]
Cc1oc(C(C)(C)C)cc1C(=O)Nc1ccc2c(c1)OCCO2 39.8 µM [inhibitor, partial curve]
COCCN1C(=O)/C(=C/c2ccc(OCc3ccc(C(=O)O)cc3)c(OC)c2)SC1=Nc1ccccc1 56.2 µM [inhibitor, partial curve]
O=C(COC(=O)c1cc[n+]([O-])cc1)Nc1cccc(Cl)c1Cl 0.891 µM [inhibitor, full curve, poor fit]
NS(=O)(=O)c1ccc(CCNC(=O)c2cncc(Br)c2)cc1 3.98 µM [inhibitor, single point]
O=C(COC(=O)c1ccc2c(c1Cl)C(=O)c1ccccc1C2=O)NC1CC1 44.7 µM [inhibitor, partial curve]
CC(Oc1ccccc1)C(=O)N/N=C/c1ccccn1 (stereo not drawn) 5.01 µM [inhibitor, full curve, poor fit]
Cc1ccccc1C(=O)NC(=S)Nc1cccc(NC(=O)C(C)C)c1 20 µM [inhibitor, partial curve]
Cc1ccc(C(=O)c2ccc(N3CCN(C)CC3)c([N+](=O)[O-])c2)cc1 79.4 µM [inhibitor, partial curve]
Cc1ccc(-n2nc(C)c3c2OC(N)=C(C#N)C3c2ccccc2F)cc1 (stereo not drawn) 79.4 µM [inhibitor, partial curve]
O=C(C[n+]1cccc(C(=O)N/N=C/c2ccc(Br)cc2)c1)c1ccccc1 50.1 µM [inhibitor, partial curve, poor fit]
Cc1nc(C)c(C(=O)Nc2ncc([N+](=O)[O-])s2)o1 70.8 µM [inhibitor, partial curve, poor fit]
CCOC(=O)CSc1ncnc2c1cnn2-c1ccc(C)cc1 39.8 µM [inhibitor, single point]
O=C(NCCCN1CCN(c2ccccc2)CC1)c1ccc2nc(CCc3ccccc3)oc2c1 22.4 µM [inhibitor, full curve]
COc1ccccc1N1CCN(Cc2cc3c(cc2O)OCO3)CC1 56.2 µM [inhibitor, partial curve]
Cc1ccc(C2c3[nH]c4ccccc4c3CCN2C(=O)CSc2ccccc2)cc1 (stereo not drawn) 50.1 µM [inhibitor, partial curve]
CC(C)C(NS(=O)(=O)c1ccc2c(c1)Cc1cc(S(=O)(=O)NC(C(=O)O)C(C)C)ccc1-2)C(=O)O (stereo not drawn) 89.1 µM [inhibitor, single point]
Nc1ccc(Oc2ccc([N+](=O)[O-])cc2[N+](=O)[O-])cc1 44.7 µM [inhibitor, partial curve]
Cc1cc(=O)[nH]c(N=N/C(=N/Nc2ccccc2C)c2ccccc2)n1 63.1 µM [inhibitor, partial curve, poor fit]
CCS(=O)(=O)N1CCc2cc(C(=O)Nc3cccc(NC(C)=O)c3)ccc21 39.8 µM [inhibitor, partial curve]
Cc1c(C(=O)Nc2cccc(F)c2)cnn1-c1ccccc1 14.1 µM [inhibitor, full curve, poor fit]
COc1cc(Br)c(C2CC(=O)Nc3cc4c(cc32)OCCO4)cc1OC (stereo not drawn) 63.1 µM [inhibitor, partial curve]
COc1ccccc1-c1sc2cc3c(cc2c1-c1ccc(O)cc1)OCO3 79.4 µM [inhibitor, partial curve]

Reference: PubChem BioAssay AID504339 (National Center for Advancing Translational Sciences (NCATS), 2011)
